Molecules are shown by their SMILES. The campaign covered roughly 150,000 compounds. About 540 (0.36%) showed an effect of 50% or more. Some of the results follow.

From ChEMBL document CHEMBL5308541, “MAIP: An Open-Source Tool to Enrich High-Throughput Screening Output and Identify Novel, Druglike Molecules with Antimalarial Activity” (ACS Med Chem Lett, 2023) come the findings set out here.

For the test, the system named is Plasmodium falciparum. Kind of test: Primary screen in NF54 nanoGlo assay, in single point, at 2uM, 72h; a lower Z score goes with more inhibition. It counts as functional, Erythrocyte. The settings on record: timepoint 72 hour.
With `Cc1nc(N2CCN(C)CC2)cc(N2CCN(S(=O)(=O)c3ccccc3C(F)(F)F)CC2)n1`, the “% Inhibition” value is given as 42% and the Z score is on record as -7.34.
Turning to `Cc1cncc(-c2ccc(F)c(CN3CCNCC3)c2)c1`, the “% Inhibition” value is -7% and the Z score stood at 1.44.
As for `CCCN(CCC1=CCCCC1)C(=O)[C@H]1CCc2nn(C)c(=O)n2C1`, the “% Inhibition” value was -8% and the Z score is 1.59.
Take `CCCc1cc(NC2CCCC2N(C)C)nc(C)n1` (configuration not stated): the “% Inhibition” value is 5% and the Z score was -0.9.
For `c1cc2cn[nH]c2cc1CNC1(c2noc(C3CCCC3)n2)CCCCCC1`, the “% Inhibition” value was -7% and the Z score came out at 1.21.
In the same order, the values of `COc1ccc(Cn2cc(-c3n[nH]c4ncccc34)cn2)cc1` are -6% and 0.89.
With `Cn1nc(NC(=O)Cn2cccnc2=O)c2c(N3CCOCC3)cccc21`, the “% Inhibition” value is -11% and the Z score was 2.45.
Take `CN(Cc1cc(-c2ccccc2)no1)C(=O)CN1CC2CCC(CC1=O)N2` (configuration not stated): the “% Inhibition” value came to 6% and the Z score is given as -1.35.
The corresponding values for `Cc1ccc2[nH]cc(-c3ccc(Oc4ccc(N)cn4)cc3)c2c1` are 2% and -0.47.
In the same order, the values of `C[C@H](Oc1cccc(-c2ccnc3[nH]ccc23)c1)C(N)=O` are 17% and -3.74.
Consider `Cc1nc2c(c(N(C)C)n1)CCN(C(=O)c1c[nH]nc1-n1cnnn1)C2`, for which the “% Inhibition” value is given as -6% and the Z score was 0.87.
The corresponding values for `O=C(NC1CCCC1n1ccnc1)c1cccc(Nc2cnccn2)c1` (configuration not stated) are -1% and 0.27.
In the case of `Nc1ccc(-c2cc(N)nc(N3CCOCC3)n2)cn1`, the “% Inhibition” value is reported as 1% and the Z score was -0.21.
For `CC(c1ccccc1)N1CCC(NCC2CN3CCCC3CO2)C1` (configuration not stated), the “% Inhibition” value amounted to 6% and the Z score was -1.1.
In the case of `CS(=O)(=O)N1CCC(CNc2ccc(-c3ccncc3)cn2)CC1`, the “% Inhibition” value is given as -6% and the Z score turned out to be 1.
For `CN(C)c1nccc(N2C[C@@H](F)C[C@H]2CNCc2cnc3cnccn23)n1`, the “% Inhibition” value was 0% and the Z score was found to be 0.07.
Regarding `OCCn1ccc(Nc2cc(C(F)(F)F)nc(-c3cccnc3)n2)n1`, the “% Inhibition” value is given as -6% and the Z score is 1.36.
Regarding `COC1CCOCC1NC(=O)c1cc2cnccc2[nH]1` (configuration not stated), the “% Inhibition” value was -4% and the Z score amounted to 0.63.
For `Cc1cc2cc(C(=O)N3CCC(Cc4noc(C5CC5)n4)CC3)ccc2o1`, the “% Inhibition” value is given as 16% and the Z score is given as -2.87.
On to `Cc1cc(C(=O)N2C[C@H](O)[C@@H](N(C)C)C2)nn1-c1ccc(F)cc1`, for which the “% Inhibition” value is on record as -10% and the Z score was 2.03.
In the same order, the values of `CCc1nnc(-c2c(C)[nH]c(-c3ccccc3)c2-c2c(-c3ccccc3)noc2CC)[nH]1` are 4% and -0.66.
Regarding `CN(C)c1ccnc(NCCC2CCN(C3CCCC3)CC2)n1`, the “% Inhibition” value is reported as -6% and the Z score was found to be 1.02.
On to `c1cc(CN2CCN(c3cc(N4CCN(Cc5ccncc5)CC4)ncn3)CC2)ccn1`, for which the “% Inhibition” value is recorded as 29% and the Z score is reported as -5.7.
As for `COc1cc(OC)c2nc(N3CCCO[C@@H](CN4CCCCC4)C3)cc(C)c2c1`, the “% Inhibition” value is recorded as -1% and the Z score worked out at 0.27.
Consider `FC(F)(F)CN1CCC[C@@H]1CNc1ncnc2[nH]ncc12`, for which the “% Inhibition” value is recorded as -4% and the Z score is reported as 0.74.
As to `C[C@H]1CCCCN1C(=O)CN1CCN(c2ccc(-c3ccc4c(c3)OCCCO4)nn2)CC1`, the “% Inhibition” value was -14% and the Z score turned out to be 2.46.
As to `C[C@@H]1CN(C(=O)c2cnc3[nH]ccc3c2)C[C@H](C)N1CC(F)(F)F`, the “% Inhibition” value is on record as -12% and the Z score is 2.03.
The corresponding values for `FC(F)(F)CN1CC[C@H](Nc2nnc(-c3cccc(Cl)c3)o2)C1` are 6% and -1.21.
Take `Cc1c[nH]c(CN(C)C(=O)NCC2CCN(C3CCN(C)CC3)CC2)n1`: the “% Inhibition” value was -3% and the Z score came to 0.39.
For the compound `c1ccc2[nH]c(-c3cnn4ccccc34)nc2c1`, the “% Inhibition” value is 0% and the Z score amounted to 0.02.
On to `Cc1cc(N2CCCN(CCC(=O)Nc3cccnc3)CC2)ccn1`, for which the “% Inhibition” value is given as -13% and the Z score is reported as 2.28.
Consider `Cc1[nH]nc2cc(NC(=O)[C@H]3CCN(C4CCCCC4)C3)ccc12`, for which the “% Inhibition” value was 7% and the Z score was -1.11.
The corresponding values for `O[C@@H](CNc1ncnc2cnccc12)c1ccc(-c2ccsc2)s1` are 5% and -0.8.
In the case of `CC(=O)Nc1ccc(CCNCc2cccc(O)c2)cc1`, the “% Inhibition” value was -1% and the Z score came out at 0.15.
Regarding `O[C@H](COC1CCOCC1)CN1CCN(c2nccc3sccc23)CC1`, the “% Inhibition” value is listed as -12% and the Z score came to 2.57.
In the case of `Cc1ccc(O)c(-c2[nH]nc3c2[C@@H](c2ccc(C(C)(C)C)cc2)N(CCCN2CCOCC2)C3=O)c1`, the “% Inhibition” value is recorded as -12% and the Z score was found to be 1.88.
As to `CC(NCCCC1(O)CCC1)C1CN(C(=O)OC(C)(C)C)CCO1` (configuration not stated), the “% Inhibition” value is given as 0% and the Z score was -0.07.
For the compound `Cc1ccc(C)c(CN(C)C(=O)[C@@H]2CS(=O)(=O)CC(=O)N2)c1`, the “% Inhibition” value is recorded as -10% and the Z score worked out at 2.09.
For the compound `O=C(Cc1cccc2ccccc12)N1CCC(N2CCC(Oc3ccccc3F)CC2)CC1`, the “% Inhibition” value is recorded as -2% and the Z score is listed as 0.38.
Regarding `FC(F)(F)c1ccccc1-c1ccc(-c2nnc(Nc3ccccc3)s2)o1`, the “% Inhibition” value is -6% and the Z score was found to be 1.07.
`C[C@@H](c1cccc(-c2nc3cc(C#N)ccc3[nH]2)c1)N(C)C`: the “% Inhibition” value is listed as 27% and the Z score is given as -4.6.

Usually % Inhibition stands for the change of the read-out against control, counted positive when it falls.
